{"source": "PubChem BioAssay AID588855", "about": "(National Center for Advancing Translational Sciences (NCATS), 2011)", "note": "In all, about 410,000 compounds went through this assay and about 5,000 (1.2%) were called active. The inconclusive results got no clear call from the source; some entries with a clear call stand among them for comparison. Calls follow the shape of the dose curve; as a rule, active = well fitted inhibition curve with a large enough effect; inconclusive = small, poorly fitted or top-dose-only effect; inactive = no such curve, though single readings can be large or run the other way. A potency beside an inconclusive call is a rough fit, not a confirmed value. % is scaled to controls: 0 for no effect and ±100 for the full control effect; potency is read from the fitted curve at half-maximal effect; tags tell the direction and shape of the fitted curve.", "data": [{"assay": "qHTS for Inhibitors of TGF-b; also: nearly all actives have a fitted effect of over 65% in size", "conditions": "HepG2 CAGA-GFP TGF-b/SMAD3 reporter, GFP fluorescence, 18 h, TGF-beta stimulated, 500 pg/mL final; series mostly up to 46.1 µM; activity, negative = inhibition: at the top concentration", "how_it_was_run": "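First, reporter cells (HEPG2 CAGA-GFP) rested 2 h at 37 degrees C. Next, compounds were pinned in and TGF-beta added to 500 pg/mL final. After 18 h, GFP was imaged per cell and summed per well.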", "values": [{"smiles": "Cc1ccc(NC(=O)C2CCN(c3nc4ccccc4nc3C(F)(F)F)CC2)cc1C", "activity, negative = inhibition": "inactive: -28.7%"}, {"smiles": "COc1ccc(-c2cc(C3CCN(c4ncccc4[N+](=O)[O-])CC3)[nH]n2)cc1", "Potency": "inconclusive: 22.4 µM [inhibitor, single point]"}, {"smiles": "COc1ccc(-c2c/c(=N\\c3nc(-c4ccccc4)c(C)s3)c3ccccc3o2)cc1O", "Potency": "active: 8.91 µM"}, {"smiles": "O=S(=O)(Cc1cc(NCc2ccccc2)nc(-c2ccncc2)n1)c1ccccc1", "Potency": "inconclusive: 6.31 µM [inhibitor, full curve, poor fit]"}, {"smiles": "CC[C@]12c3[nH]c4cc(-c5ccco5)ccc4c3CCN1C(=O)[C@@H](CC(=O)NC(C)(C)C)C[C@@H]2C(=O)N1CCN(C(=O)c2ccco2)CC1", "Potency": "inconclusive: 15.8 µM [inhibitor, single point]"}, {"smiles": "Cc1cc(C)cc(N2C(=O)CS(=O)(=O)C23C(=O)N(C)c2ccccc23)c1", "note": "(configuration not stated)", "activity, negative = inhibition": "inactive: 4.81%"}, {"smiles": "CCN(CC1CCCN(CCc2cccc(OC)c2)C1)C(=O)C=C(C)C", "note": "(configuration not stated)", "activity, negative = inhibition": "inactive: 26.6%"}, {"smiles": "OC[C@H]1OC(O)C[C@@H](O)[C@@H]1O", "note": "(some centres not stated)", "activity, negative = inhibition": "inactive: -15.6%"}, {"smiles": "O=C1/C(=C\\c2ccc(Br)o2)Cc2ccccc21", "Potency": "inconclusive: 12.6 µM [inhibitor, partial curve, poor fit]"}, {"smiles": "CC(C)[C@H](NS(=O)(=O)c1ccccc1)C(=O)Nc1ccccc1N1CCOCC1", "Potency": "inconclusive: 5.01 µM [inhibitor, partial curve]"}, {"smiles": "CC(=O)/C(N)=N/Nc1cccc(Cl)c1", "Potency": "inconclusive: 5.62 µM [inhibitor, single point]"}, {"smiles": "COc1ccc(S(=O)(=O)NCCSCc2cccs2)cc1", "activity, negative = inhibition": "inactive: -6.13%"}, {"smiles": "C=CCn1c(SCC(=O)NC2CCCC2)nc2scc(-c3ccco3)c2c1=O", "activity, negative = inhibition": "inactive: -7.39%"}, {"smiles": "Cc1ccc(CNC(=O)c2cc(S(=O)(=O)N3CCOCC3)cn2C)cc1", "activity, negative = inhibition": "inactive: 12%"}, {"smiles": "Cc1ccc2cc(/C=N/Nc3ccc(C(=O)O)cc3)c(Cl)nc2c1", "Potency": "inconclusive: 35.5 µM [inhibitor, single point]"}, {"smiles": "O=C1CC(C(F)(F)F)=NN1", "activity, negative = inhibition": "inactive: -12%"}, {"smiles": "COc1ccccc1CNC(=O)c1ccc(CSc2nc3ccncc3n2Cc2ccccc2C)cc1", "Potency": "inconclusive: 8.91 µM [inhibitor, partial curve, poor fit]"}, {"smiles": "N=c1n(Cc2ccccc2)c2ccccc2n1CC(O)c1ccco1", "note": "(configuration not stated)", "Potency": "inconclusive: 3.16 µM [inhibitor, single point]"}, {"smiles": "Cc1ccc(O)c(-c2cc(-c3ccccc3C)[nH]n2)c1", "Potency": "inconclusive: 25.1 µM [inhibitor, single point]"}, {"smiles": "Cc1cc(Cl)ccc1NC(=O)CN1C(=O)CSc2ccc(S(=O)(=O)N3CCOCC3)cc21", "Potency": "inconclusive: 15.8 µM [inhibitor, single point]"}, {"smiles": "Cc1cccc(NC(=O)CSCC(=O)Nc2ccccc2N2CCCCC2)c1", "Potency": "inconclusive: 22.4 µM [inhibitor, single point]"}, {"smiles": "CC(C)(C)C1CCc2c(sc(NC(=O)CSc3ncn[nH]3)c2C#N)C1", "note": "(configuration not stated)", "Potency": "inconclusive: 35.5 µM [inhibitor, single point]"}, {"smiles": "COc1ccccc1Nc1c2c(nc3ccc(NC(=O)/C=C/c4cc(OC)c(OC)c(OC)c4)cc13)CCCC2", "Potency": "active: 4.47 µM"}, {"smiles": "Cc1ccc(-c2[nH]nc(N)c2N=Nc2cccc(Cl)c2C)cc1", "Potency": "inconclusive: 35.5 µM [inhibitor, single point]"}, {"smiles": "CCC(=O)Nc1ccc(N/C(N)=N/c2nc(C)cc(C)n2)cc1", "Potency": "inconclusive: 12.6 µM [inhibitor, partial curve, poor fit]"}, {"smiles": "Cc1nn(Cc2c(F)c(F)c(F)c(F)c2F)c(C)c1NC(=O)c1cccc(COc2ccc(Cl)cc2)c1", "Potency": "inconclusive: 1.78 µM [inhibitor, partial curve, poor fit]"}, {"smiles": "Cc1ccc(CS(=O)Cc2ccc(C(=O)N3CCN(c4ccc(F)cc4)CC3)o2)cc1", "note": "(configuration not stated)", "Potency": "inconclusive: 35.5 µM [inhibitor, partial curve, poor fit]"}, {"smiles": "CC(=N\\NC(=O)c1cc(Br)ccc1O)/C(=N/O)C(=O)Nc1ccccc1", "Potency": "inconclusive: 25.1 µM [inhibitor, single point]"}, {"smiles": "Cc1nc2sccn2c1-c1csc(NCc2ccccc2)n1", "Potency": "inconclusive: 4.47 µM [inhibitor, full curve]"}, {"smiles": "COc1ccc(CNc2oc(-c3cccc4ccccc34)nc2C#N)cc1", "Potency": "inconclusive: 35.5 µM [inhibitor, single point]"}, {"smiles": "O=C(OCc1nc2ccccc2s1)c1cnccn1", "Potency": "inconclusive: 3.55 µM [inhibitor, partial curve, poor fit]"}, {"smiles": "C#CCNC(=O)C1=C[C@@H](C)[C@H](CCCO)[C@@H](OCC)O1", "Potency": "inconclusive: 35.5 µM [inhibitor, partial curve, poor fit]"}, {"smiles": "CCn1c2c(c(=O)n3ncc(C(=O)Nc4ccc(OC(F)(F)F)cc4)c13)CN(Cc1ccc(OC)cc1)CC2", "Potency": "inconclusive: 22.4 µM [inhibitor, partial curve, poor fit]"}, {"smiles": "Cc1nc(S(=O)(=O)N(C)c2ccccc2)c(C#N)c(C)c1Cl", "Potency": "inconclusive: 35.5 µM [inhibitor, single point]"}, {"smiles": "O=c1c(Sc2ccccc2)c(C(F)(F)F)[nH]n1-c1ccccc1", "Potency": "inconclusive: 35.5 µM [inhibitor, partial curve, poor fit]"}, {"smiles": "CN(CC(=O)Nc1ccccc1Br)C(=O)CCSc1ccc(F)cc1", "Potency": "inconclusive: 35.5 µM [inhibitor, single point]"}, {"smiles": "COc1ccc(CN(C)C(=O)C2CSC3(C)CCC(=O)N23)cc1OC", "note": "(configuration not stated)", "activity, negative = inhibition": "inactive: 6.61%"}, {"smiles": "Cc1ccc(C(C2C(=O)CC(C)(C)CC2=O)C2C(=O)CC(C)(C)CC2=O)s1", "Potency": "inconclusive: 35.5 µM [inhibitor, single point]"}, {"smiles": "CN(C)c1ccc(NC(=S)NC(=O)/C=C/c2ccc(Cl)cc2)cc1", "Potency": "inconclusive: 5.62 µM [inhibitor, single point]"}, {"smiles": "CCCCCCOc1ccc(C(CC(N)=O)C(=O)O)cc1", "note": "(configuration not stated)", "Potency": "inconclusive: 35.5 µM [inhibitor, single point]"}, {"smiles": "O=C(N/N=C/c1ccccn1)c1cc(-c2ccccc2Cl)n[nH]1", "activity, negative = inhibition": "inactive: -15.1%"}, {"smiles": "O=C(NCCCc1nc2ccccc2n1CCCCOc1ccccc1)C1CCCCC1", "Potency": "inconclusive: 35.5 µM [inhibitor, single point]"}]}]}
